# In patent publication US20240124614A1:
# Where a chain is given by its changes, count along the chain named.
# B1: hT4VL.FRv40501 (antibody, human IgG1, kappa)
# heavy: EVQLVESGGGLVQPGGSLRLSCAASGYTFTSYVMHWVRQAPGKGLEWVSAINPYNDGNYYADSVKGRFTISRDNSRKTLYLQMNSLRAEDTAVYYCARGAYKRGYAMDYWGQGTTVTVSSASTKGPSVFPLAPSSKSTSGGTAALGCLVKDYFPEPVTVSWNSGALTSGVHTFPAVLQSSGLYSLSSVVTVPSSSLGTQTYICNVNHKPSNTKVDKKV[human IgG1 Fc not given here]GSGGGSVTGYRLFEEIL
# light: DLVMTQSPSSLSASVGDRVTITCKSSQSLFESKTRKNYLAWYQQKPGKAPKLLIYWASTRESGVPARFSGSGSGTDFTLTISSLEPEDFAVYYCHQYYYEPYTFGQGTKVEIKRTVAAPSVFIFPPSDEQLKSGTASVVCLLNNFYPREAKVQWKVDNALQSGNSQESVTEQDSKDSTYSLSSTLTLSKADYEKHKVYACEVTHQGLSSPVTKSFNRGEC
# B2: hT4VL.FRv40502 (antibody, human IgG1, kappa)
# heavy: B1 heavy
# light: B1 light with H95Y
# B3: hT4VL.FRv40503 (antibody, human IgG1, kappa)
# heavy: B1 heavy
# light: B1 light with H95Q, Y97E
# B4: hT4VL.FRv40504 (antibody, human IgG1, kappa)
# heavy: B1 heavy
# light: B1 light with H95Q, Y97F
# B5: hT4VL.FRv40505 (antibody, human IgG1, kappa)
# heavy: B1 heavy
# light: B1 light with K33S
# B6: hT4VL.FRv40506 (antibody, human IgG1, kappa)
# heavy: B1 heavy
# light: B1 light with K33S, H95Y
# B7: hT4VL.FRv40507 (antibody, human IgG1, kappa)
# heavy: B1 heavy
# light: B1 light with K33S, H95Q, Y97E
# B8: hT4VL.FRv40508 (antibody, human IgG1, kappa)
# heavy: B1 heavy
# light: B1 light with K33S, H95Q, Y97F
# B9: hT4VL.FRv40509 (antibody, human IgG1, kappa)
# heavy: B1 heavy
# light: B1 light with K33S, E100Q
# B10: hT4VL.FRv40510 (antibody, human IgG1, kappa)
# heavy: B1 heavy
# light: B1 light with K33S, H95Y, E100Q
# B11: hT4VL.FRv40511 (antibody, human IgG1, kappa)
# heavy: B1 heavy
# light: B1 light with K33S, H95Q, Y97E, E100Q
# B12: hT4VL.FRv40512 (antibody, human IgG1, kappa)
# heavy: B1 heavy
# light: B1 light with K33S, H95Q, Y97F, E100Q
# B13: hT4VL.FRv40513 (antibody, human IgG1, kappa)
# heavy: B1 heavy
# light: B1 light with K33V
# B14: hT4VL.FRv40514 (antibody, human IgG1, kappa)
# heavy: B1 heavy
# light: B1 light with K33V, H95Y
# B15: hT4VL.FRv40515 (antibody, human IgG1, kappa)
# heavy: B1 heavy
# light: B1 light with K33V, H95Q, Y97E
# B16: hT4VL.FRv40516 (antibody, human IgG1, kappa)
# heavy: B1 heavy
# light: B1 light with K33V, H95Q, Y97F
# B17: hT4VL.FRv40517 (antibody, human IgG1, kappa)
# heavy: B1 heavy
# light: B1 light with K33R, R35S
# B18: hT4VL.FRv40518 (antibody, human IgG1, kappa)
# heavy: B1 heavy
# light: B1 light with K33R, R35S, H95Y
# B19: hT4VL.FRv40519 (antibody, human IgG1, kappa)
# heavy: B1 heavy
# light: B1 light with K33R, K36L
# B20: hT4VL.FRv40520 (antibody, human IgG1, kappa)
# heavy: B1 heavy
# light: B1 light with K33R, K36L, H95Y
# B21: hT4VL.FRv40521 (antibody, human IgG1, kappa)
# heavy: B1 heavy
# light: B1 light with E31N, S32D, H95Q, Y97E
# B22: hT4VL.FRv40522 (antibody, human IgG1, kappa)
# heavy: B1 heavy
# light: B1 light with E31N, S32D, H95Q, Y97F
# B23: hT4VL.FRv40523 (antibody, human IgG1, kappa)
# heavy: B1 heavy
# light: B1 light with E31N, S32D, H95Q, Y97E, E100Q
# B24: hT4VL.FRv40524 (antibody, human IgG1, kappa)
# heavy: B1 heavy
# light: B1 light with E31N, S32D, H95Q, Y97F, E100Q
# B25: hT4VL.FRv40525 (antibody, human IgG1, kappa)
# heavy: B1 heavy
# light: B1 light with E31N, S32D, H95Q, Y97E, E100Q, P101M
# B26: hT4VL.FRv40526 (antibody, human IgG1, kappa)
# heavy: B1 heavy
# light: B1 light with E31N, S32D, H95Q, Y97F, E100Q, P101M
# B27: hT4VL.FRv40527 (antibody, human IgG1, kappa)
# heavy: B1 heavy
# light: B1 light with E31N, S32E, H95Q, Y97E
# B28: hT4VL.FRv40528 (antibody, human IgG1, kappa)
# heavy: B1 heavy
# light: B1 light with E31N, S32E, H95Q, Y97F
# B29: hT4VL.FRv40529 (antibody, human IgG1, kappa)
# heavy: B1 heavy
# light: B1 light with E31N, S32E, H95Q, Y97E, E100Q
# B30: hT4VL.FRv40530 (antibody, human IgG1, kappa)
# heavy: B1 heavy
# light: B1 light with E31N, S32E, H95Q, Y97F, E100Q
# B31: hT4VL.FRv40531 (antibody, human IgG1, kappa)
# heavy: B1 heavy
# light: B1 light with E31N, K33S, R35S
# B32: hT4VL.FRv40532 (antibody, human IgG1, kappa)
# heavy: B1 heavy
# light: B1 light with E31N, K33S, R35S, H95Y
# B33: hT4VL.FRv40533 (antibody, human IgG1, kappa)
# heavy: B1 heavy
# light: B1 light with E31N, K33S, R35S, H95Q, Y97E
# B34: hT4VL.FRv40534 (antibody, human IgG1, kappa)
# heavy: B1 heavy
# light: B1 light with E31N, K33S, R35S, H95Q, Y97F
# B35: hT4VL.FRv40535 (antibody, human IgG1, kappa)
# heavy: B1 heavy
# light: B1 light with E31N, K33S, R35S, E100Q
# Molecular target: ECM (extracellular matrix)
# Experiment: ECL plate assay on coated ECM (Matrigel)
Binder,ECM binding vs Control Ab (pH 5.8) (fold vs Control Ab),ECM binding vs Control Ab (pH 7.4) (fold vs Control Ab)
B1,7.52,1.04
B2,19.3,1.65
B3,14.1,1.1
B4,12.9,1.57
B5,4.21,0.66
B6,11.6,1.04
B7,8.26,0.77
B8,5.73,0.78
B9,6.26,1.02
B10,17.7,1.7
B11,13.1,1.14
B12,8.43,1.21
B13,3.49,0.63
B14,13,1.23
B15,11.9,0.85
B16,6.99,0.86
B17,3.34,0.85
B18,8.3,1.32

Binder,ECM binding vs Control Ab (pH 5.8) (fold vs Control Ab),ECM binding vs Control Ab (pH 7.4) (fold vs Control Ab)
B19,4.8,1.51
B20,7.03,2.36
B21,17.9,1.15
B22,17,1.95
B23,30.2,2.57
B24,26.8,3.2
B25,24.8,2.41
B26,15.7,2.83
B27,18.5,1.51
B28,18.2,2.11
B29,26.7,2.35
B30,28.1,3.49
B31,1.41,0.43
B32,6.44,0.58
B33,2.36,0.44
B34,1.8,0.48
B35,2.14,0.49
